This passage reports inhibition, IC50 and Ki results from patent US20110039874A1 (Northeastern University, priority 2007, published 2011).

Molecules are shown by their SMILES.

In experiment [1] the target is T1, Monoacylglycerol lipase (MGL) (Rattus norvegicus, UniProt Q8R431).
T1 sequence (Q8R431 1-303): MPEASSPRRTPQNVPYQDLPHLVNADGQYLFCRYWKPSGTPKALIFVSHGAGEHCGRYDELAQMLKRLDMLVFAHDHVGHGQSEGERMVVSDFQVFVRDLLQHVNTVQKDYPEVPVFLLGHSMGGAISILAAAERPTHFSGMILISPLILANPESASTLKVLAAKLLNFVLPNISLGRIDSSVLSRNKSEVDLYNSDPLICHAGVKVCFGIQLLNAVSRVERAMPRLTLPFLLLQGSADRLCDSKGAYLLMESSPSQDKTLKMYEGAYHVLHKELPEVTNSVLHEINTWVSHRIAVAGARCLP
Particulars: 100 µM.

Experiment [2] concerns the target T1, Monoacylglycerol lipase (MGL). Put plainly: biochemical.

Consider `O=C(CCCOc1cccc(OCc2ccccc2)c1)C(F)(F)F` [Compound 23.5, 1,1,1-Trifluoro-5-[3-(Benzyloxy)phenoxy]-2-pentanone], for which, in experiment [1], the inhibition – broadly, the percentage by which the read-out fell short of the control – stood at 69%. In addition, in experiment [2], the IC50 (commonly the concentration at which inhibition is half-maximal) turned out to be 51.6 µM and the Ki – broadly, a measure of affinity in units of concentration, obtained from inhibition or displacement – was determined as 14.2 µM.
In experiment [1], `O=C(CCCCOc1cccc(OCc2ccccc2)c1)C(F)(F)F` [Compound 23.6, 1,1,1-Trifluoro-6-[3-(Benzyloxy)phenoxy]-2-hexanone] gave an inhibition of 66%. In experiment [2], the IC50 turned out to be 83.4 µM and the Ki is 23.8 µM.
In turn, `O=C(CCCCCOc1cccc(OCc2ccccc2)c1)C(F)(F)F` [Compound 23.7, 1,1,1-Trifluoro-7-[3-(Benzyloxy)phenoxy]-2-heptanone] gave an inhibition in experiment [1] of 38%. In addition, in experiment [2], it took 329 µM to reach half-maximal inhibition (IC50) and affinity was put at a Ki of 66.7 µM.
On the same counts, the results for `O=C(CCCCCOc1ccccc1OCc1ccccc1)C(F)(F)F` [Compound 23.10, 1,1,1-Trifluoro-7-[2-(Benzyloxy)phenoxy]-2-heptanone] are 66%, 32.7 µM and 9 µM.
Compound `O=C(CCCCCCOc1ccc(O)cc1)C(F)(F)F` [Compound 24.4, 1,1,1-Trifluoro-8-[4-(hydroxy)phenoxy]-2-octanone] came in with an inhibition in experiment [1] of 42%. For the same compound, in experiment [2], the IC50 came to 130 µM and the Ki is 26.4 µM.
For `O=C(c1cccc(-c2cccc(OCc3ccccc3)c2)c1)C(F)(F)F` [Compound 30], the inhibition in experiment [1] is 36%. In experiment [2], this compound had an IC50 of 433 µM and a Ki of 109 µM.
On the same counts, the results for `CCCCCCC(C)(C)c1cc(O)c(-c2ccc(C(=O)C(F)(F)F)cc2)c(O)c1` [Compound 40.1, 1-(2′,6′-dihydroxy-4′-(2-methyloctan-2-yl)biphenyl-4-yl)-2,2,2-trifluoroethanone] are 85%, 36 µM and 9 µM.
In experiment [1], `O=C(Nc1ccc(Br)cc1)OC12CC3CC(CC(C3)C1)C2` [Compound 48.4] displayed an inhibition of 99%. In experiment [2], this compound yielded an IC50 of 15.4 µM and a Ki of 3.9 µM.
In experiment [1], `O=C(c1ccccn1)C(F)(F)CCCCOc1ccccc1` [Compound 89.9, 2,2-Difluoro-6-phenoxy-1-(pyridin-2-yl)-hexan-1-one] gave an inhibition of 59%. For the same compound, in experiment [2], 0.99 µM corresponded to half-maximal inhibition (IC50) and the Ki came out at 0.25 µM.
Compound `Cc1nnc(C(=O)C(F)(F)CCCCOc2ccccc2)o1` [Compound 89.12] yielded an inhibition in experiment [1] of 73%. Moreover, in experiment [2], half-maximal inhibition (IC50) required 0.215 µM and the Ki was found to be 0.054 µM.
In experiment [1], `Cc1nnc(C(=O)C(F)(F)c2ccc(-c3ccccc3)cc2)o1` [Compound 93.1, 2-(Biphenyl-4-yl)-2,2-difluoro-1-(5-methyl-1,3,4-oxadiazol-2-yl)ethanone] showed an inhibition of 50%. In experiment [2], this compound displayed an IC50 of 0.34 µM and a Ki of 0.086 µM.
